Reference: the supplement of paper PMC4967469

Key:
Assay in all cases: Viability of human cancer cell lines after 72 h of drug (GDSC screen)
[1] = compound: N[C@@H](CSC(c1ccccc1)(c1ccccc1)c1ccccc1)C(=O)O [S-Trityl-L-cysteine]; conditions: top dose 5.12 µM; top dose inferred
Procedure: (§1)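 Human cancer cell lines in 384-well plates, medium with 10% serum, drug for 72 h over a 256-fold dose range (nine 2-fold or five 4-fold steps up to the top dose). Adherent lines were fixed and stained with the nucleic acid dye Syto60, suspension lines read with resazurin; signal relative to control wells, capped at 0 and 100%. One two-parameter sigmoid per drug and line, fitted in a mixed model over all curves with the slope shared within a line.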

[2] = compound: CNCc1ccc(-c2[nH]c3cc(F)cc4c3c2CCNC4=O)cc1 [AG-014699]; conditions: top dose 5 µM; top dose inferred
Procedure: as §1

[3] = compound: C=CC(=O)Nc1cc(NC(=O)c2ccc(C)c(NC(=O)c3ccno3)c2)cc(C(F)(F)F)c1 [QL-XI-92]; conditions: top dose 10.24 µM; top dose inferred
Procedure: as §1

[4] = compound: O=c1cc(N2CCOCC2)oc2c(-c3cccc4c3sc3ccccc34)cccc12 [NU-7441]; conditions: top dose 2 µM; top dose inferred
Procedure: as §1

[5] = compound: CCC1=C[C@@H]2CN(C1)Cc1c([nH]c3ccccc13)[C@@](C(=O)OC)(c1cc3c(cc1OC)N(C)[C@H]1[C@@](O)(C(=O)OC)[C@H](OC(C)=O)[C@]4(CC)C=CCN5CC[C@]31[C@@H]54)C2 [Vinorelbine]; conditions: top dose 0.064 µM; top dose inferred
Procedure: as §1

[6] = compound: COc1cc2nccc(Oc3ccc(NC(=O)C4(C(=O)Nc5ccc(F)cc5)CC4)cc3)c2cc1OC [XL-184]; conditions: top dose 5.12 µM; top dose inferred
Procedure: as §1

[7] = compound: O=c1cc(CN2CCOCC2)occ1OCCCCCSc1ccnc2cc(C(F)(F)F)ccc12 [EHT 1864]; conditions: top dose 10 µM; top dose inferred
Procedure: as §1

[8] = compound: N=C(N)NC(=N)NCCc1ccccc1 [Phenformin]; conditions: top dose 4000 µM; top dose inferred
Procedure: as §1

[9] = compound: COc1cc2ncnc(Nc3cc(Br)c(O)c(Br)c3)c2cc1OC [WHI-P97]; conditions: top dose 10.24 µM; top dose inferred
Procedure: as §1

Cell Line	AUC [1]	AUC [2]	IC50 [2]	AUC [3]	IC50 [3]	AUC [4]	IC50 [4]	AUC [5]	IC50 [5]	AUC [6]	IC50 [6]	AUC [7]	IC50 [7]	AUC [8]	IC50 [8]	AUC [9]	IC50 [9]	IC50 [1]
A101D (melanoma, adherent)	0.732	0.979	> 5 µM	0.98	> 10.2 µM	0.833	1.72 µM	0.626	0.00965 µM	0.895	> 5.12 µM	0.974	> 10 µM	0.542	333 µM	0.962	> 10.2 µM	–
A498 (kidney, adherent)	0.945	0.971	> 5 µM	0.965	> 10.2 µM	0.976	> 2 µM	0.682	0.0168 µM	0.973	> 5.12 µM	0.939	> 10 µM	0.936	> 4000 µM	0.972	> 10.2 µM	> 5.12 µM
BC-3 (B-cell lymphoma, suspension)	0.795	–	–	0.986	> 10.2 µM	–	–	0.64	0.00931 µM	0.956	> 5.12 µM	–	–	0.719	960 µM	0.979	> 10.2 µM	2.1 µM
BT-474 (breast, adherent)	0.936	0.937	> 5 µM	0.949	> 10.2 µM	0.985	> 2 µM	0.801	0.0358 µM	0.935	> 5.12 µM	0.89	> 10 µM	0.606	507 µM	0.977	> 10.2 µM	> 5.12 µM
CAL-148 (breast, suspension)	0.78	–	–	0.986	> 10.2 µM	–	–	0.684	0.0125 µM	0.988	> 5.12 µM	–	–	0.696	843 µM	0.981	> 10.2 µM	1.94 µM
Calu-6 (lung adenocarcinoma, adherent)	0.58	0.978	> 5 µM	0.95	> 10.2 µM	0.984	> 2 µM	–	–	0.927	> 5.12 µM	–	–	0.475	211 µM	0.958	> 10.2 µM	0.546 µM
DEL (lymphoid neoplasm, suspension)	0.693	0.993	> 5 µM	0.842	5.06 µM	0.994	> 2 µM	0.435	0.00277 µM	0.987	> 5.12 µM	0.992	> 10 µM	0.684	721 µM	0.963	> 10.2 µM	0.973 µM
ES3 (Ewing sarcoma, adherent)	0.966	–	–	0.93	> 10.2 µM	0.975	> 2 µM	0.721	0.0176 µM	0.956	> 5.12 µM	0.947	> 10 µM	0.842	3040 µM	0.946	> 10.2 µM	> 5.12 µM
GAK (melanoma, adherent)	0.859	0.982	> 5 µM	0.987	> 10.2 µM	0.977	> 2 µM	0.85	0.0451 µM	0.98	> 5.12 µM	–	–	0.84	2570 µM	0.988	> 10.2 µM	3.93 µM
H-EMC-SS (chondrosarcoma, adherent)	0.957	0.973	> 5 µM	0.933	> 10.2 µM	0.981	> 2 µM	0.93	> 0.064 µM	0.677	1.16 µM	0.924	> 10 µM	0.959	> 4000 µM	0.955	> 10.2 µM	> 5.12 µM
HCC-33 (small cell lung carcinoma, adherent)	0.863	–	–	0.85	7.92 µM	–	–	0.855	0.0521 µM	0.979	> 5.12 µM	–	–	0.69	859 µM	0.984	> 10.2 µM	4.54 µM
HCE-4 (oesophagus, adherent)	0.592	0.986	> 5 µM	0.992	> 10.2 µM	–	–	0.579	0.00637 µM	0.992	> 5.12 µM	0.967	> 10 µM	0.974	> 4000 µM	0.992	> 10.2 µM	0.55 µM
HEL (acute myeloid leukaemia, semi-adherent)	0.82	0.992	> 5 µM	0.888	8.13 µM	–	–	0.852	0.0371 µM	0.97	> 5.12 µM	0.979	> 10 µM	0.686	750 µM	0.954	> 10.2 µM	2.32 µM
HH (T-cell leukaemia, suspension)	0.791	0.965	> 5 µM	0.849	> 10.2 µM	0.828	1.84 µM	0.564	0.00633 µM	0.921	> 5.12 µM	0.921	> 10 µM	0.45	174 µM	0.968	> 10.2 µM	3.2 µM
HT-144 (melanoma, adherent)	0.514	0.954	> 5 µM	0.98	> 10.2 µM	0.938	> 2 µM	0.276	0.000853 µM	0.954	> 5.12 µM	0.931	> 10 µM	0.69	911 µM	0.977	> 10.2 µM	0.35 µM
Hs-445 (Hodgkin lymphoma, suspension)	0.734	–	–	0.852	7 µM	–	–	0.498	0.00394 µM	0.969	> 5.12 µM	–	–	0.703	886 µM	0.964	> 10.2 µM	1.4 µM

Lines with a small IC50 respond at low doses; a fit beyond the top or the lowest dose is shown as a bound at that dose. AUC sums up the same curve from the lowest dose to the 256-fold higher top dose: 1 means no effect, lower means more sensitive. Any top dose called inferred comes from the curve model; the source does not state it.
